From PubChem BioAssay AID686978 (National Center for Advancing Translational Sciences (NCATS), 2013)
The whole screen tested about 420,000 compounds, of which about 64,000 (15%) were called active. Inconclusive means that the source gave no clear call. Such entries were picked first, then a sample of the others. Calls come from the whole dose curve; as a rule, active = well fitted inhibition curve with a large enough effect; inconclusive = small, poorly fitted or top-dose-only effect; inactive = flat fitted curve, though single readings scatter. Potencies of inconclusive entries are left out as doubtful fits.

Assay: qHTS for Inhibitors of human tyrosyl-DNA phosphodiesterase 1 (TDP1): qHTS in cells in absence of CPT; note: nearly all actives have a fitted effect of over 55% in size
Details: DT40 Tdp1-/- hTDP1 cells, no CPT, ATP luminescence, 48 h; activity change, negative = growth inhibition: at 46.2 µM (top of the series) unless noted
Method in brief: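 Stably hTDP1-transfected Tdp1-null chicken DT40 cells were treated with library compounds minus camptothecin and grown for at least 48 hr at 37 °C, after which cellular ATP was quantified by luminescence.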
% is set by controls: 0 for no effect and ±100 for the full control effect; potency is the fitted concentration of half-maximal effect; tags give direction and shape of the fitted curve.

Row | Compound | Potency | activity change, negative = growth inhibition
1 | Cc1ccccc1C(=O)Nc1ccc(C(=O)OCc2cc(=O)n3c4c(sc3n2)CCCC4)cc1 | inconclusive [inhibitor, single point] | 
2 | Cc1ccc(-n2c(=O)c3ccc(C(=O)NCc4ccccc4Cl)cc3n(CC(N)=O)c2=O)cc1 | inconclusive [inhibitor, single point] | 
3 | Cc1ncc(C[n+]2csc(CCOC(=O)C34CC5CC(CC(C5)C3)C4)c2C)c(N)n1 | inconclusive [inhibitor, single point] | 
4 | O=C(CBr)c1ccc(Oc2ccc(C(=O)C[n+]3ccccc3Cl)cc2)cc1 | inconclusive [inhibitor, single point] | 
5 | COc1cccc(C2=NCCc3cc4c(cc32)OCO4)c1OC | inconclusive [inhibitor, single point] | 
6 | CCCn1cnc2cc(NC(=O)c3cccs3)ccc21 | inactive | 
7 | Cc1cc(C)c(C)c(OCCN2CC(C)OC(C)C2)c1 (centres undefined) | inactive | 
8 | COc1ccc(CCNC(=O)Nc2nc(C(N)C3CCCCC3)cs2)cc1OC (centres undefined) | inconclusive [inhibitor, single point] | 
9 | Cc1nc2sc3c(c2c2nnc(SCC(=O)NCc4ccco4)n12)CCCC3 | inconclusive [inhibitor, single point] | 
10 | CSc1ncc(C(=O)Nc2cccc(Cl)c2C)c(-c2ccccc2)n1 | inconclusive [inhibitor, single point] | 
11 | CC(CCc1ccccc1)NC(=O)c1cccs1 (centres undefined) | inconclusive [inhibitor, full curve] | 
12 | CCN(CC)C(=O)C1=C(C)Nc2nc3ccccc3n2C1c1ccc(Cl)cc1 (centres undefined) | inconclusive [inhibitor, single point] | 
13 | COCCNC(=S)N1CCC(C(=O)c2ccc3c(c2)OCCO3)CC1 | inconclusive [inhibitor, single point] | 
14 | O=C(c1cccc(F)c1F)N1CCOc2ccc(CN3CCN(Cc4ccccn4)CC3)cc2C1 | inactive | 
15 | CN(c1cccc(NC(=O)CSc2ccc(Cl)cc2)c1)S(C)(=O)=O | active: 11.2 µM | 
16 | Cc1cc(C(=O)CSc2nnc(C3COc4ccccc4O3)n2C)c(C)n1-c1ccc(F)cc1 (centres undefined) | inconclusive [inhibitor, single point] | 
17 | CS(=O)(=O)N(CC(=O)NC1CCCC1)c1ccc(Oc2ccccc2)cc1 | inconclusive [inhibitor, single point] | 
18 | Cc1ccccc1NC(=O)c1ccc(CNS(=O)(=O)c2ccc3c(c2)C(C)(C)C(=O)N3C)cc1 | inconclusive [inhibitor, single point] | 
19 | COc1ccc(CC(=O)Nc2cccc(-c3ccc4nnc(C)n4n3)c2)cc1OC | active: 9.2 µM | 
20 | Cc1ccc(C)c2sc(N3CCN(C(=O)c4ccc([N+](=O)[O-])o4)CC3)nc12 | inconclusive [inhibitor, single point] | 
21 | O=C(NCc1ccccc1F)C1CCCN1C(=O)Nc1ccccc1 (centres undefined) | inactive | 
22 | CN1C(=O)c2ccccc2N(C)C1c1ccc2c(c1)OCO2 (centres undefined) | inconclusive [inhibitor, single point] | 
23 | OC(c1ccc2c(c1)OCO2)c1ncc(-c2ccc(Cl)cc2)[nH]1 (centres undefined) | inconclusive [inhibitor, single point] | 

Row | Compound | Potency | activity change, negative = growth inhibition
24 | CCCCOc1ccc(C(=O)NCCc2csc3nc(-c4ccccc4F)nn23)cc1 | inconclusive [inhibitor, single point] | 
25 | O=C(N/N=C/C=C\c1ccco1)c1cccs1 | inconclusive [inhibitor, partial curve, poor fit] | 
26 | O=C(OCCCOC(=O)c1ccc([N+](=O)[O-])o1)c1ccc([N+](=O)[O-])o1 | inactive | 
27 | COc1ccc(C2(CNC(=O)c3ccccc3)CCCC2)cc1OC | inconclusive [inhibitor, partial curve] | 
28 | CC(=O)c1cccc(NC(=O)CSc2nc(=O)n(Cc3ccccn3)c3c2CCC3)c1 | inconclusive [inhibitor, single point] | 
29 | COc1ccc2c(c1)c(C(C)=O)c(C)n2C | inconclusive [inhibitor, single point] | 
30 | COc1ccc(S(=O)(=O)N(CC(C)C)C2CCS(=O)(=O)C2)cc1OC (centres undefined) | inactive | 
31 | Cc1ccc(Cl)cc1N(C)C(=O)c1cc2ccc3cccnc3c2[nH]1 | active: 8.2 µM | 
32 | CCCCCCNc1c([N+](=O)[O-])c(=O)sc2ccccc12 | inconclusive [inhibitor, single point] | 
33 | CCn1c(-c2ccc(-c3ccccc3)cc2)c[nH]c1=S | inconclusive [inhibitor, single point] | 
34 | O=S(=O)(c1ccc(NC(=S)NN=C2CCCCC2)cc1)N1CCOCC1 | inactive | 
35 | C=CCn1c(SCC(=O)Nc2cc(Cl)ccc2C(=O)O)nc2sc(C)c(C)c2c1=O | inactive | 
36 | COc1ccc(/C=N/n2c(C)nc3sc(C)c(C)c3c2=O)cc1OC |  | inconclusive: -30.4% [inhibitor]
37 | CC1(C)COC(Cn2c3ccccc3c3ccccc32)O1 (centres undefined) | inconclusive [inhibitor, single point] | 
38 | CCCCN(CCCC)Cc1ccc(C(=O)NNC(=O)Nc2ccccc2)o1 | inactive | 
39 | COc1ccc(-n2nc(C(=O)Nc3ccc4c(c3)OCO4)c3ccccc3c2=O)cc1 | inconclusive [inhibitor, single point] | 
40 | COc1cccc(Nc2ccc(-n3ccnc3)nn2)c1 | inactive | 
41 | Cc1cc(NC(=O)c2ccc(Cl)c(S(=O)(=O)N3CCCCC3)c2)no1 |  | inconclusive: -31.2% [inhibitor]
42 | CCC(=O)OC(OP(=O)(CCCCc1ccccc1)CC(=O)N1C[C@H](C2CCCCC2)C[C@H]1C(=O)O)C(C)C (some centres undefined) | inactive | 
43 | CCOc1nc(-c2ccc(OC)cc2)ccc1-c1noc(-c2cc(OC)c(OC)c(OC)c2)n1 | active: 3.66 µM | 
44 | CC(C)(C)c1ccc(C(=O)NNC(=O)CNC(=O)c2cccs2)cc1 | inactive | 
45 | Cc1cccc(C)c1NC(=O)c1cccc(COc2cc(Cl)ccc2Cl)c1 | inconclusive [inhibitor, partial curve] | 
46 | CSc1ccc(CCNC(=O)c2ccc3c(c2)c(C)c(C)n3Cc2ccc(F)cc2)cc1 | inconclusive [inhibitor, single point] | 

Row | Compound | Potency | activity change, negative = growth inhibition
47 | O=C(CSc1nc(-c2ccco2)cc(C(F)(F)F)n1)Nc1ccc2c(c1)CCC2 | inconclusive [inhibitor, single point] | 
48 | C/C(=N\NC(=S)NC1CCCCC1)c1ccc(OC(F)F)cc1OC(F)F | active: 25.9 µM | 
49 | CC1CN(S(=O)(=O)c2cccc(C(F)(F)F)c2)CN1C(=O)N1CCOCC1 (centres undefined) | inactive | 
50 | CCCOc1ccc(C(=O)Nc2ccc(S(=O)(=O)N3CCN(C)CC3)cc2)cc1 | inconclusive [inhibitor, partial curve] | 
51 | CCC(C)c1ccc(S(=O)(=O)N2CCN(C(C)C(=O)NC3CCCC3)CC2)cc1 (centres undefined) | inconclusive [inhibitor, single point] | 
52 | COCCn1c(CNC(=O)c2cc(OC)c(OC)c(OC)c2)nc2cccnc21 | inactive | 
53 | CCOc1cc(NC(=S)NCC2CCCO2)c(OCC)cc1NC(=O)c1ccc(C)cc1 (centres undefined) | inactive | 
54 | N#Cc1ccc(CN2CC[C@@]3(CCCN(S(=O)(=O)c4ccccc4)C3)C2)cc1 | inconclusive [inhibitor, single point] | 
55 | COc1ccc(CCNC(=O)c2cc3cc(Cl)ccc3nc2N)cc1OC | active: 8.2 µM | 
56 | CCc1nc(C(N)=O)c2[nH]c(=O)n(-c3ccc(OC)cc3OC)c2n1 | inactive | 
57 | O=C(COC(=O)/C=C/c1ccccc1[N+](=O)[O-])NNC(=O)c1ccc(F)cc1 | inactive | 
58 | COc1ccc(CN(CCC(c2ccco2)C(C)C)C(C)=O)cc1OC (centres undefined) | inconclusive [inhibitor, single point] | 
59 | CCOCCn1c(CN2CCN(c3ccc(F)cc3)CC2)nc2c1c(=O)n(C)c(=O)n2C | active: 18.4 µM | 
60 | COC(=O)Cc1ccc(NC(=O)c2ccc(C(C)(C)C)cc2)cc1 | inconclusive [inhibitor, single point] | 
61 | CCOC(=O)c1cnc(-n2nc(C)cc2C)nc1N(C)C | inconclusive [inhibitor, single point] | 
62 | COc1ccc(N=C2C(=Nc3ccc(OC)cc3)N(c3ccc(N(C)C)cc3)C(=S)N2c2ccc(OC)cc2)cc1 | active: 1.03 µM | 
63 | CCN(c1cccc(C(F)(F)F)c1)S(=O)(=O)c1ccc2c(c1)CCN2C(C)=O | inconclusive [inhibitor, single point] | 
64 | O=C(CSc1ccc2nnc(-c3ccccn3)n2n1)Nc1ccc(F)cc1F |  | inconclusive: -32.2% [inhibitor]
65 | CCN(CC)C(=O)C1CCCN(c2ncnc3c2nc2n3CCCCC2)C1 (centres undefined) | inconclusive [inhibitor, single point] | 
66 | Cc1ccc([C@@H]2C3COCC=C3C(C#N)=C(N)C2(C#N)C#N)o1 (some centres undefined) | inconclusive [inhibitor, single point] | 
67 | O=C1NC2=C(CCc3ccccc32)C(c2ccc(Br)cc2)N1 (centres undefined) | inconclusive [inhibitor, partial curve] | 
68 | COc1ccc(N2CCN(CC(=O)NCc3ccc(Cl)cc3)CC2)cc1 | inconclusive [inhibitor, single point] | 
69 | Cc1ccc(S(=O)(=O)N2CCN(c3ccnc4cc(Cl)ccc34)CC2)cc1C | inconclusive [inhibitor, single point] | 
